Assay results from PubChem BioAssay AID504332 (National Center for Advancing Translational Sciences (NCATS), 2011).
In all, about 350,000 compounds went through this assay and about 31,000 (8.9%) were called active. The shares of active, inactive and inconclusive entries below differ from those in the screen. Calls follow the shape of the dose curve; as a rule, active = well fitted inhibition curve with a large enough effect; inconclusive = small, poorly fitted or top-dose-only effect; inactive = no such curve, though single readings can be large or run the other way. Potencies of inconclusive entries are doubtful fits and often do not repeat.

Molecular target: Histone-lysine N-methyltransferase EHMT2 (Homo sapiens) (UniProt Q96KQ7)
Sequence of UniProt Q96KQ7 (Q96KQ7 whole entry, looked up): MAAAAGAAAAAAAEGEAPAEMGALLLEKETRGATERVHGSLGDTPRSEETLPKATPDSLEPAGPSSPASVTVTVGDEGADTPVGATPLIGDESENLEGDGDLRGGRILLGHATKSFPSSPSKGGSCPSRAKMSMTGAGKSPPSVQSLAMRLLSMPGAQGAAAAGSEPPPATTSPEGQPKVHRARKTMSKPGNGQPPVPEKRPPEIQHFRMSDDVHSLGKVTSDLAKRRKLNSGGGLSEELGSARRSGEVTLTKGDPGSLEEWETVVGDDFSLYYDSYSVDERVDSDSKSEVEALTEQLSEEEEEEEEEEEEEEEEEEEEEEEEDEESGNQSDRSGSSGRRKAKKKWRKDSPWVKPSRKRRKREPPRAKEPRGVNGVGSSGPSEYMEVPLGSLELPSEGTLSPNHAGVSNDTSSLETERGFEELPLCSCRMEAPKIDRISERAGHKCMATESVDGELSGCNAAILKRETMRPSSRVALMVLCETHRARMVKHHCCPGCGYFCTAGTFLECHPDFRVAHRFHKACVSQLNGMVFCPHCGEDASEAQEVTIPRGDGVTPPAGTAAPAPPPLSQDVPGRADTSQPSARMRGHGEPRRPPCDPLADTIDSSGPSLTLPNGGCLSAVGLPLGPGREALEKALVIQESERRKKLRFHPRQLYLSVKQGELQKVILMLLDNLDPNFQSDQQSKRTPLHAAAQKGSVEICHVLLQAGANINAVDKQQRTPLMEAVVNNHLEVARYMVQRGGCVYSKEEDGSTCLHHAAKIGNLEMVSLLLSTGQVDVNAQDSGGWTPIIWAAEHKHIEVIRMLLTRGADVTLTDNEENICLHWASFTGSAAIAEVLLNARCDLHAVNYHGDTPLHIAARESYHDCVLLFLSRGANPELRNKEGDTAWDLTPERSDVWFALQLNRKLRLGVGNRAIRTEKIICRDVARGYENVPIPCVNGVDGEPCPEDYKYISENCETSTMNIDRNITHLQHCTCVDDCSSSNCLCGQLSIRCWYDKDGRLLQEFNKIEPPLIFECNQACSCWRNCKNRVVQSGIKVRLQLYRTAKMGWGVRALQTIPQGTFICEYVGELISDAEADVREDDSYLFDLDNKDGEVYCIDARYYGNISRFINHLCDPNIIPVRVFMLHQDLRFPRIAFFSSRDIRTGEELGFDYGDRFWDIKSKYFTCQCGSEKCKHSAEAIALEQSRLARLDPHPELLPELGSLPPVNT
Test: qHTS Assay for Inhibitors of Histone Lysine Methyltransferase G9a; also: nearly all actives have a fitted effect of over 75% in size
Details: G9a H3K9 monomethylation, AlphaScreen, 2 h; activity, negative = inhibition: at 59 µM (top of the series) unless noted
How it was run: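 AlphaScreen detection with an anti-monomethyl H3K9 antibody quantified product after a 2 h room-temperature reaction containing 500 nM biotinylated H3K9 peptide, 20 µM SAM and 20 nM enzyme, which had been preincubated 15 min with compound.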
% is scaled to controls: 0 for no effect and ±100 for the full control effect; potency is read from the fitted curve at half-maximal effect; tags tell the direction and shape of the fitted curve.

Q: With `S=c1nc(C2CC2)[nH]c2ccccc12` as the compound, how does the activity, negative = inhibition read?
A: inconclusive: -75.4% [inhibitor]

Q: How did the “activity, negative = inhibition” value turn out when `CCOC(=O)C1CCCN(S(=O)(=O)c2cc(-c3cc(C)no3)ccc2C)C1` (stereo unspecified) was run?
A: inactive: 10.6%

Q: For `CCN1CCN(C(c2ccccc2)c2nnnn2CCc2ccc(OC)c(OC)c2)CC1` (stereo unspecified), which Potency is on record?
A: inconclusive: 39.8 µM [inhibitor, single point]

Q: Which Potency does the source give for `CCSc1nc2c(c(=O)n1Cc1ccccc1)SC(C)C2` (stereo unspecified) here?
A: inconclusive: 3.55 µM [inhibitor, single point]

Q: With `Cc1ccc(-c2nnn(CC(=O)N(CC(=O)NC3CCCC3)c3ccc(F)c(Cl)c3)n2)o1` as the compound, how does the Potency read?
A: inconclusive: 39.8 µM [inhibitor, single point]

Q: `COc1ccc(NC(=O)Cc2nnc(N)s2)cc1` was tested. Which Potency did it give?
A: inconclusive: 56.2 µM [inhibitor, single point]

Q: Which Potency does the source give for `N#Cc1c(NC(=O)CSc2ncnc3sccc23)oc(-c2ccco2)c1-c1ccco1` here?
A: inconclusive: 35.5 µM [inhibitor, single point]

Q: Which Potency does the source give for `O=C(/C=C\Nc1ccccc1Br)c1ccc2c(c1)OCO2` here?
A: inconclusive: 7.94 µM [inhibitor, full curve]

Q: For `CCOC(=O)c1nnsc1Nc1ccc(C)c(C)c1`, which Potency is on record?
A: active: 7.08 µM

Q: With `O=C1NC(=O)/C(=C/c2ccc(-c3ccc(F)cc3O)o2)S1` as the compound, how does the Potency read?
A: active: 21.2 µM

Q: With `Nc1ccccc1C(=O)NNc1c2ccccc2nc2ccccc12` as the compound, how does the Potency read?
A: active: 17.8 µM

Q: How did the Potency turn out when `COc1cccc(-c2cc(C(=O)Nc3cnn(Cc4ccc(F)cc4)c3)no2)c1` was run?
A: inconclusive: 79.4 µM [inhibitor, single point]

Q: How did the Potency turn out when `CCCCCCC(=O)Nc1nc(C)c(-c2csc(Nc3cc(OC)ccc3OC)n2)s1` was run?
A: inconclusive: 22.4 µM [inhibitor, single point]

Q: With `CCCCSc1nnc(-c2ccccc2N)c(=O)[nH]1` as the compound, how does the Potency read?
A: inconclusive: 50.1 µM [inhibitor, partial curve]

Q: For `COc1ccc(C(=O)NNC(=O)c2cc(C)[nH]n2)cc1`, which Potency is on record?
A: inconclusive: 70.8 µM [inhibitor, partial curve]

Q: `O=C(CSc1nc2ccc(NC(=O)c3ccccc3C(=O)O)cc2s1)Nc1c(Cl)cccc1Cl` was tested. Which Potency did it give?
A: active: 70.8 µM

Q: `Cn1c(NCCCO)nc2ccccc21` was tested. Which Potency did it give?
A: inconclusive: 100 µM [inhibitor, single point]

Q: `O=c1oc2ccc3ccccc3c2cc1-c1nnc(Nc2cccc(F)c2)s1` was tested. Which “activity, negative = inhibition” value did it give?
A: inactive: 5.51%

Q: How did the “activity, negative = inhibition” value turn out when `CC(=O)c1sc(NC(=O)c2c(F)cccc2F)nc1-c1ccccc1` was run?
A: inactive: -18.8% [at 102 µM]

Q: Which Potency does the source give for `COc1cccc(CN(C)C(=O)COc2ccc(C(=O)c3ccc(Cl)cc3)cc2)c1OC` here?
A: inconclusive: 79.4 µM [inhibitor, partial curve, poor fit]

Q: With `O=C(CCCn1c(=O)c2cccn2c2cccnc21)Nc1ccccc1Br` as the compound, how does the “activity, negative = inhibition” value read?
A: inactive: 3.43%

Q: `O=C1Nc2ccccc2C1=Nc1cccc([N+](=O)[O-])c1` was tested. Which Potency did it give?
A: inconclusive: 89.1 µM [inhibitor, single point]

Q: How did the Potency turn out when `CC(=O)NNc1nc(-c2ccccc2)cs1` was run?
A: inconclusive: 39.8 µM [inhibitor, single point]

Q: `Brc1ccc(-c2csc(N3CCOCC3)n2)cc1` was tested. Which Potency did it give?
A: inconclusive: 20 µM [inhibitor, partial curve, poor fit]

Q: Which Potency does the source give for `CCOC(=O)C(C)/C(C)=N\Nc1ccc([N+](=O)[O-])cc1[N+](=O)[O-]` (stereo unspecified) here?
A: active: 31.6 µM

Q: For `Cc1cccc(C)c1Nc1c(-c2ccccc2O)nc2ncccn12`, which activity, negative = inhibition is on record?
A: inactive: -7.84% [at 12.7 µM]

Q: For `CN(C(=O)COC(=O)C1(C)CC1(Cl)Cl)c1c(N)n(Cc2ccccc2)c(=O)[nH]c1=O` (stereo unspecified), which Potency is on record?
A: inconclusive: 39.8 µM [inhibitor, single point]

Q: `CC12CCC(C/C1=N\OC(=O)c1c(F)cccc1F)C2(C)C` (stereo unspecified) was tested. Which Potency did it give?
A: inconclusive: 63.1 µM [inhibitor, partial curve, poor fit]

Q: `CCN(CC)CCn1c(NCc2cc(OC)ccc2OC)nc2ccccc21` was tested. Which Potency did it give?
A: inconclusive: 39.8 µM [inhibitor, single point]

Q: Which Potency does the source give for `COc1cc(OC)c(NC(=S)NCc2ccccc2)cc1Cl` here?
A: inconclusive: 44.7 µM [inhibitor, partial curve]

Q: `C/C(=N\NC(=O)c1cccc(Br)c1)c1ccccn1` was tested. Which “activity, negative = inhibition” value did it give?
A: inactive: 26.6% [at 102 µM]

Q: `CCCCCCCC(=O)Nc1ccc(C(=O)N/N=C/c2cccc([N+](=O)[O-])c2)cc1` was tested. Which “activity, negative = inhibition” value did it give?
A: inactive: 18%

Q: For `Cc1ccc(CNC(=O)Cn2cc(C(=O)c3ccc(Cl)cc3)c(=O)c3ccc(C)nc32)cc1`, which “activity, negative = inhibition” value is on record?
A: inactive: -22.7%

Q: How did the “activity, negative = inhibition” value turn out when `CCOC(=O)c1c(NC(=O)/C=C/c2ccc(OCC)cc2)sc2c1CCC2` was run?
A: inactive: 29%

Q: Which “activity, negative = inhibition” value does the source give for `COc1ccc(C(=O)CC(=O)C(=O)Nc2ccc([N+](=O)[O-])cc2C)cc1` here?
A: inactive: 4.12% [at 102 µM]

Q: Which “activity, negative = inhibition” value does the source give for `Cc1nn(-c2ccccc2)c(Cl)c1/C=N/NS(=O)(=O)c1ccc(Br)cc1` here?
A: inactive: -21.7% [at 102 µM]

Q: How did the Potency turn out when `Cc1ccccc1NS(=O)(=O)c1ccc2oc(=O)ccc2c1` was run?
A: inconclusive: 89.1 µM [inhibitor, single point]

Q: For `O=C(NNC(=O)[C@H]1CC=CC[C@H]1C(=O)O)c1ccc(Cl)cc1Cl`, which “activity, negative = inhibition” value is on record?
A: inactive: -21.6% [at 102 µM]

Q: Which “activity, negative = inhibition” value does the source give for `CC(CNC(=O)c1ccc(N)cc1)NC(=O)c1ccc(N)cc1` (stereo unspecified) here?
A: inactive: -4.15% [at 102 µM]

Q: Which “activity, negative = inhibition” value does the source give for `CCN(CC)CCCNC(=S)N(Cc1ccco1)Cc1cc2cc3c(cc2[nH]c1=O)OCCO3` here?
A: inactive: 25.8%

Q: With `O=C(c1ccc(F)c(S(=O)(=O)N2CCOCC2)c1)N1CCN(c2ncccn2)CC1` as the compound, how does the Potency read?
A: inconclusive: 0.891 µM [inhibitor, single point]

Q: `Cc1ccc(S(=O)(=O)N2CCC(C(=O)NCCCN3CCCCCC3)CC2)cc1` was tested. Which activity, negative = inhibition did it give?
A: inconclusive: -102% [inhibitor] [at 102 µM]

Q: How did the Potency turn out when `COc1ccccc1Oc1nc2c(c(=O)n(Cc3ccccc3F)c(=O)n2C)n1C` was run?
A: inconclusive: 35.5 µM [inhibitor, single point]

Q: With `C/C(CCN1CCCCc2nc(C)c(C)cc21)=N\OC[C@@H](O)[C@H]1O[C@@H]2OC(C)(C)O[C@@H]2[C@H]1O` as the compound, how does the Potency read?
A: active: 50.1 µM

Q: How did the Potency turn out when `Cc1cccc(OCCCCn2c(C3CC(=O)N(c4ccc(C)cc4C)C3)nc3ccccc32)c1` (stereo unspecified) was run?
A: inconclusive: 35.5 µM [inhibitor, partial curve, poor fit]

Q: Which Potency does the source give for `CO/N=C/c1cc([N+](=O)[O-])ccc1Sc1ccc(C)cc1` here?
A: inconclusive: 8.91 µM [inhibitor, full curve]

Q: For `O=C(Nc1cccc(Cl)c1)/C(=C\c1cccnc1)NC(=O)c1ccco1`, which Potency is on record?
A: inconclusive: 25.1 µM [inhibitor, single point]

Q: `O=C(COC(=O)c1nc(Cl)ccc1Cl)NC1CCCCC1` was tested. Which Potency did it give?
A: inconclusive: 7.94 µM [inhibitor, single point]

Q: `CCc1ccc(C2=C(C)C(N3CCC(C(=O)NCc4ccc(C)o4)CC3)=NS2(=O)=O)cc1` was tested. Which “activity, negative = inhibition” value did it give?
A: inactive: 16%

Q: With `C/C(=N\Nc1ccc(Cl)c(C(=O)O)c1)c1cc2ccccc2o1` as the compound, how does the Potency read?
A: active: 28.2 µM

Q: Which Potency does the source give for `Cc1ccc(S(=O)(=O)N2CCCc3cc(NC(=O)c4c(F)cccc4F)ccc32)cc1` here?
A: inactive

Q: Which Potency does the source give for `CN=Cc1cc(-c2ccccc2)sc1O` here?
A: inconclusive: 20 µM [inhibitor, single point]

Q: How did the Potency turn out when `Cc1cccc(-c2noc(-c3ccccc3C(=O)NCc3ccco3)n2)c1` was run?
A: inconclusive: 39.8 µM [inhibitor, single point]

Q: With `COc1ccc(CN(CCC#N)C(=S)NC(=O)c2ccccc2)cc1` as the compound, how does the Potency read?
A: active: 39.8 µM

Q: How did the Potency turn out when `CCOc1cccc(CN2CCCC(N3CCN(c4cccc(Cl)c4)CC3)C2)c1O` (stereo unspecified) was run?
A: inconclusive: 70.8 µM [inhibitor, partial curve]

Q: `COCCN1C(=O)C(=O)/C(=C(/O)c2ccc3c(c2)OCCO3)C1c1ccc(C(=O)OC)cc1` (stereo unspecified) was tested. Which activity, negative = inhibition did it give?
A: inconclusive: -62% [inhibitor]

Q: How did the Potency turn out when `Cc1ccccc1C(=O)Nc1ccc(C(=O)OCc2cc(=O)n3c4c(sc3n2)CCCC4)cc1` was run?
A: inconclusive: 25.1 µM [inhibitor, partial curve, poor fit]

Q: With `COc1ccc(CNc2cc(C)ccn2)c(O)c1` as the compound, how does the Potency read?
A: inconclusive: 70.8 µM [inhibitor, single point]

Q: How did the “activity, negative = inhibition” value turn out when `CCOc1ccccc1NC(=O)CSc1nccn1Cc1ccc(F)cc1` was run?
A: inactive: -32.5%

Q: With `Cc1cc(C(=O)COC(=O)CNC(=O)c2ccc(F)cc2)c(C)n1Cc1ccco1` as the compound, how does the Potency read?
A: inconclusive: 22.4 µM [inhibitor, single point]

Q: How did the Potency turn out when `Cc1ccc(CCC(=O)Nc2ccc([N+](=O)[O-])cc2Cl)o1` was run?
A: inconclusive: 89.1 µM [inhibitor, single point]

Q: `Cc1[nH]c2ccccc2c1C(=O)CN1CC(C)OC(C)C1` (stereo unspecified) was tested. Which Potency did it give?
A: inconclusive: 100 µM [inhibitor, partial curve, poor fit]

Q: Which Potency does the source give for `COCCNc1nc(-c2cc(C)n(CCc3ccc(OC)cc3)c2C)cs1` here?
A: active: 10 µM

Q: With `Cc1cc(C(=O)COC(=O)c2ccc3c(c2)OCO3)c(C)n1Cc1cccs1` as the compound, how does the Potency read?
A: inconclusive: 0.891 µM [inhibitor, partial curve, poor fit]

Q: For `Cc1sc2ncnc(N3CCC(C(=O)Nc4ccc(C#N)cc4)CC3)c2c1C`, which Potency is on record?
A: inconclusive: 50.1 µM [inhibitor, partial curve]

Q: `COc1ccc(C(=O)Nc2ccc(O)cc2C(=O)O)cc1` was tested. Which Potency did it give?
A: inconclusive: 50.1 µM [inhibitor, partial curve, poor fit]

Q: For `O=C(Cn1cnc2ccccc21)Nc1cccc(S(=O)(=O)N2CCCC2)c1`, which Potency is on record?
A: inconclusive: 8.91 µM [inhibitor, single point]

Q: `Cc1c(F)cccc1NC(=O)CCCCCC1NC(=O)NC1C` (stereo unspecified) was tested. Which Potency did it give?
A: active: 0.708 µM

Q: Which “activity, negative = inhibition” value does the source give for `COC(=O)C1(C)NC(c2ccc(C)cc2)C2C(=O)N(c3ccc(F)cc3)C(=O)C21` (stereo unspecified) here?
A: inactive: 7.54% [at 102 µM]

Q: `CCN(CCCNC(=O)c1ccc(Sc2ccc(F)cc2)c(NC(C)=O)c1)c1ccccc1` was tested. Which Potency did it give?
A: inconclusive: 10 µM [inhibitor, partial curve, poor fit]

Q: How did the “activity, negative = inhibition” value turn out when `CCOC(=O)c1ccc(S(=O)(=O)N2CCN(CC(O)COc3cccc(C(C)=O)c3)CC2)cc1` (stereo unspecified) was run?
A: inactive: -8.5% [at 102 µM]
